According to publication PMC3380837:
Where a chain is given by its changes, count along the chain named. Names and notes keep the numbering of the source. These are yes or no findings as the source states them, for the method shown. Binding seen in cells or lysates may run through a third protein. Some binding calls cover weakened binding; strength is not graded here. Where a sequence is shown, tags or fusion partners need not be part of it.

B1: Flag-SHPWT (small heterodimer partner, wild type) (protein, UniProt Q15466 1-257)
chain: MSTSQPGACPCQGAASRPAILYALLSSSLKAVPRPRSRCLCRQHRPVQLCAPHRTCREALDVLAKTVAFLRNLPSFWQLPPQDQRRLLQGCWGPLFLLGLAQDAVTFEVAEAPVPSILKKILLEEPSSSGGSGQLPDRPQPSLAAVQWLQCCLESFWSLELSPKEYACLKGTILFNPDVPGLQAASHIGHLQQEAHWVLCEVLEPWCPAAQGRLTRVLLTASTLKSIPTSLLGDLFFRPIIGDVDIAGLLGDMLLLR
B2: Flag-SHPK170R (protein, UniProt Q15466 1-257)
chain: B1 chain with K170R
B3: Flag-SHP38H (SHP R38H) (protein, UniProt Q15466 1-257)
chain: B1 chain with R38H
B4: Flag-SHP170N (SHPK170N) (protein, UniProt Q15466 1-257)
chain: B1 chain with K170N
B5: Flag-SHPG171A (protein, UniProt Q15466 1-257)
chain: B1 chain with G171A

Target: GST-p53 (UniProt P04637)
Test: co-IP; 293T cells co-transfected with Flag-SHP variants and GST-p53; whole cell lysates immunoprecipitated with anti-GST antibodies, SHP detected with anti-Flag

| binding | Binder |
| --- | --- |
| binds | B1 |
| binds | B2 |

Target: Myc-p53 (UniProt P04637)
Test: co-IP; Hela cells co-transfected with Myc-p53 and Flag-SHP variants; co-IP and Western blot with corresponding antibodies

| binding | Binder |
| --- | --- |
| binds | B1 |
| binds | B3 |
| binds | B4 |
| no binding | B5 |
